Assay results taken from PubChem BioAssay AID463173 (ICCB-Longwood Screening Facility, Harvard Medical School, 2010).
The campaign covered roughly 52,000 compounds. About 1,700 (3.3%) were called active. No stated cut-off is given here; in the data, active means survival mostly below about 52% (no sharp cut-off); inactive means mostly above about 56%. Some of the results follow.

These molecules were tested on Wild type (assay: S. aureus survival, RN4220 and DeltatarO strains – OD600, teichoic acid synthesis inhibitors, primary screen (AID 463173)). Settings: S. aureus RN4220 wild type/DeltatarO growth, OD600, 18 h, active compounds read low, screened at 18.75 µg/mL (by protocol).
`CCCN1CCN(CCCNC(=O)Cn2c(-c3cccs3)cc3ccccc32)CC1` was tested, and the survival was inactive: 94%.
With `Cc1ccc(NC(=O)CSc2ncnc3c2sc2ccccc23)cc1C` the survival was inactive: 126%.
In the case of `Cc1nn(C(=O)c2cccc(F)c2)c(C)c1S(=O)(=O)N1CCCCCC1`, the survival is reported as inactive: 84%.
`O=C1CCCN1Cc1ncnn1-c1ccccc1` was tested, and the survival was inactive: 108%.
For `CCC(C)NC(=O)Cn1c(=O)n(Cc2ccc(C(=O)NCc3ccccc3OC)cc2)c(=O)c2ccccc21` (stereo not drawn), the survival was inactive: 97%.
`Cn1nc(-c2ccccc2F)c2cc(C(=O)N3CCN(c4ccc(F)cc4)CC3)sc21` was tested, and the survival was inactive: 49%.
With `CCOC(=O)c1[nH]c(C)c(CCC(=O)NCc2ccccc2C)c1C` the survival was inactive: 135%.
With `CCn1cc(S(=O)(=O)c2ccc(C)cc2)c(=O)c2cc(F)c(N3CCCCCC3)cc21` the survival was inactive: 73%.
`CCOc1ccc(C(=O)C(CC(CN2CCOCC2)C(=O)c2ccc(OCC)cc2)CN2CCOCC2)cc1` (stereo not drawn) was tested, and the survival was inactive: 121%.
For `CC(c1ccccc1F)n1cc(C(=O)NCCCn2ccnc2)nn1` (stereo not drawn), the survival was inactive: 103%.
For `Cc1ccc(C)c(NC(=O)CSc2nc(=O)n(Cc3ccccn3)c3c2CCC3)c1`, the survival was inactive: 74%.
In the case of `Cc1cccc(N2CCN(S(=O)(=O)c3ccc(F)c(C(=O)Nc4ccc(C(C)C)cc4)c3)CC2)c1C`, the survival is reported as inactive: 75%.
`COc1ccc(-c2noc(CN3CCN(c4cccc(Cl)c4)CC3)n2)cc1` was tested, and the survival was inactive: 12%.
For `COc1ccc(OC)c(Nc2ncnc3c2cnn3-c2ccc(C)cc2)c1`, the survival was active: 14%.
`Cc1cc(C)cc(NS(=O)(=O)c2ccc3[nH]cc(C(=O)N4CCCCCC4)c(=O)c3c2)c1` was tested, and the survival was inactive: 79%.
`C#CC(C)(CC)NC(=O)c1cc2c(n(-c3ccc(Cl)cc3)c1=O)CC(C)(C)CC2=O` (stereo not drawn) was tested, and the survival was inactive: 77%.
`COc1ccccc1N(CC(=O)Nc1ccc(C)c(Cl)c1)S(=O)(=O)c1ccc(C)cc1` was tested, and the survival was inactive: 76%.
With `CCOc1ccc(CC(=O)NC2CC(=O)N(c3ccc(C)c(C)c3)C2)cc1` (stereo not drawn) the survival was inactive: 90%.
`O=C(C1CCC1)N1CCCc2cc(S(=O)(=O)Nc3ccc(F)cc3)ccc21` was tested, and the survival was inactive: 74%.
With `CC(=O)N1CCc2cc(Br)cc(S(=O)(=O)N3CCN(c4cc(C)ccc4C)CC3)c21` the survival was inactive: 74%.
In the case of `CC(=O)N1c2ccccc2C(=O)C1N1CCN(c2cccc(C(F)(F)F)c2)CC1` (stereo not drawn), the survival is reported as inactive: 65%.
For `COCCn1c(C)cc(O)c(C(c2ccc(C)cc2)N2CCCCC2)c1=O` (stereo not drawn), the survival was inactive: 75%.
With `Cc1cccc(CNC(=O)CCCN2C(=O)CCn3nc(-c4cn(C)c5ccccc45)cc32)c1` the survival was active: -6%.
`Cc1ccccc1OCC(=O)N(Cc1ccc(N(C)C)cc1)CC1CCCO1` (stereo not drawn) was tested, and the survival was inactive: 109%.
In the case of `OCc1nc2ccccc2n1Cc1c(F)cccc1Cl`, the survival is reported as inactive: 98%.
With `Cn1cc(-c2cc3n(n2)CCC(=O)N3CC(=O)O)c2ccccc21` the survival was inactive: 76%.
With `CCN1CCN(c2c(S(=O)(=O)c3ccccc3)cnc3ccc(Cl)cc23)CC1` the survival was inactive: 119%.
In the case of `CCN(CC)c1ccc(NC(=O)c2cc(S(=O)(=O)N3CCc4ccccc43)cn2C)c(C)c1`, the survival is reported as inactive: 87%.
In the case of `COc1ccccc1CNC(=O)CCCn1nc(C)c2sc3ccccc3c2c1=O`, the survival is reported as inactive: 87%.
`CC(C(=O)O)n1nc2ccccc2n1` (stereo not drawn) was tested, and the survival was inactive: 114%.
`COc1cccc(NC(=O)C2CCCN(c3nnc(-n4c(C)ccc4C)s3)C2)c1` (stereo not drawn) was tested, and the survival was inactive: 67%.
`Cc1ccc(OCC(=O)OCc2cc(=O)n3nc(-c4cccs4)sc3n2)cc1` was tested, and the survival was inactive: 80%.
`COCCCn1c(=N)c(S(=O)(=O)c2ccccc2)cc2c(=O)n3cc(C)ccc3nc21` was tested, and the survival was inactive: 81%.
`O=C(O)CCC(=O)N1CCN(Cc2ccc3c(c2)OCO3)CC1` was tested, and the survival was inactive: 127%.
With `CC(C)(C)OC(=O)N1CCC(c2c(C(=O)N3CCN(c4ccc(Cl)cc4)CC3)cnn2-c2ccc(F)cc2F)CC1` the survival was inactive: 66%.
`Cc1ccccc1OCC(=O)Nc1ccc2nc(SCC(=O)N(C)c3ccccc3)sc2c1` was tested, and the survival was inactive: 61%.
`Cn1cc(S(=O)(=O)c2ccc(Cl)cc2)c(=O)c2cc(F)c(N3CCCC3)cc21` was tested, and the survival was inactive: 73%.
`COc1ccc(Cl)cc1NC(=O)c1cc2ccc3ccc(C)[nH]c3c2n1` was tested, and the survival was inactive: 77%.
For `COc1ccc(CNc2nc(-c3ccco3)nn2C(=O)c2ccccc2Cl)cc1`, the survival was inactive: 95%.
With `COc1ccc(-c2cc(C(=O)Nc3ccc4c(c3)OCO4)no2)cc1OC` the survival was inactive: 108%.
`COc1cc(NC(=O)c2cc(-c3cccs3)on2)c(OC)cc1Cl` was tested, and the survival was inactive: 80%.
With `Cn1c(=O)c2nc(SCC(=O)Nc3cc(Cl)cc(Cl)c3)n(C)c2n(C)c1=O` the survival was inactive: 111%.
`CCc1ccc(NC(=O)CSc2c(C)cnc3c2c(=O)n(C)c(=O)n3C)cc1` was tested, and the survival was inactive: 59%.
With `Cc1nc2sccn2c(=O)c1S(=O)(=O)NCc1ccc(F)cc1` the survival was inactive: 84%.
`Cc1ccc(Cn2c(CNS(=O)(=O)c3ccc(C(C)(C)C)cc3)nc3cccnc32)cc1` was tested, and the survival was inactive: 120%.
`O=C(c1cc(-c2ccc(Cl)cc2)on1)N(Cc1cccc(F)c1)Cc1ccco1` was tested, and the survival was inactive: 80%.
For `COc1ccccc1CNc1nc2ccccc2c2nc(-c3cccnc3)nn12`, the survival was inactive: 67%.
`O=C(COc1ccccc1Cl)OCc1cc(=O)n2nc(C3CC3)sc2n1` was tested, and the survival was inactive: 69%.
For `COc1ccc(NC(=O)C(=O)NCCc2ccc(OC)c(OC)c2)c(OC)c1`, the survival was inactive: 134%.
In the case of `Cc1c(NC(=O)c2cc(-c3ccc(O)cc3)on2)c(=O)n(-c2ccccc2)n1C`, the survival is reported as inactive: 139%.
With `CC(=O)Nc1ccc(Cl)cn1` the survival was inactive: 98%.
For `COCCCNC(=O)c1cnn(-c2ccccc2Cl)c1C1CCN(C(=O)OC(C)(C)C)CC1`, the survival was inactive: 98%.
In the case of `COc1ccc(CCNC(=O)c2cccc(-n3c(C)nc4cccnc43)c2)cc1OC`, the survival is reported as inactive: 71%.
`COc1ccc(-c2cc3nc(-c4ccc(Br)cc4)cc(C(F)(F)F)n3n2)cc1` was tested, and the survival was inactive: 73%.
For `COC(=O)c1ccc(NC(=O)CSc2cn(CC(=O)N3CCCCCC3)c3ccccc23)cc1`, the survival was inactive: 94%.
For `COc1ccc(CNC(=O)C2CCN(C(=O)c3ccc(-n4ccc5ccccc54)s3)CC2)cc1`, the survival was inactive: 57%.
For `CC1=Nc2cc(C(=O)NC3CCCC3)ccc2Sc2ccc(C)cc21`, the survival was inactive: 75%.
In the case of `COC(=O)c1cc(C)nc2c1c(=O)nc(SCc1cccc(C)c1)n2C1CC1`, the survival is reported as inactive: 68%.
With `COc1cccc(C(=O)Nc2ccccc2C(=O)OCc2cc(=O)n3c(C)csc3n2)c1` the survival was inactive: 73%.
For `COc1ccc(NC(=O)Cn2c(C)cc3ccccc3c2=O)c(OC)c1`, the survival was inactive: 69%.
`Cc1nn(-c2nc(-c3ccc(F)cc3)cc(C(F)(F)F)n2)c(C)c1Br` was tested, and the survival was active: -2%.
For `CCC(=O)Nc1ccc(Cl)c(NC(=O)c2cc3ccccc3o2)c1`, the survival was inactive: 115%.
In the case of `O=C(Nc1ccc(N2CCC(c3ccccc3)C2)c(C(=O)O)c1)c1ccc(Cl)cc1` (stereo not drawn), the survival is reported as inactive: 47%.
In the case of `COc1cccc(NC(=O)CCc2c(C)nc3c4cccnc4nn3c2C)c1`, the survival is reported as inactive: 85%.
`CCOc1ccc(Oc2nc(NCC(C)C)nc(NC(C)(C)C)n2)nn1` was tested, and the survival was inactive: 89%.
In the case of `CCOc1ccc(CNC(=O)CCS(=O)(=O)c2cc3c(cc2Cl)NC(=O)CO3)cc1OC`, the survival is reported as inactive: 76%.
With `CCOC(=O)c1ccccc1NC(=O)Nc1cc2c(cc1N1CCCCC1)n(C)c(=O)n2C` the survival was inactive: 77%.
`Cc1nn(-c2ccc(F)cc2)c(-n2cccc2)c1C(=O)NCCCN1CCN(c2ccccc2F)CC1` was tested, and the survival was inactive: 77%.
In the case of `Cc1cccc(NC(=O)CN2C(=O)c3cccnc3Oc3ccc(Cl)cc32)c1C`, the survival is reported as inactive: 102%.
For `CSc1ccc(CCNC(=O)CCCn2nc(C)c3sc4ccccc4c3c2=O)cc1`, the survival was inactive: 88%.
With `COc1ccccc1OCC(=O)N(Cc1ccc(Cl)cc1)CC1CCCO1` (stereo not drawn) the survival was inactive: 79%.
`CCc1cccc(CC)c1NC(=O)c1ccc2c(c1)CCN2S(=O)(=O)c1ccccc1` was tested, and the survival was inactive: 84%.
`CC(=O)c1ccc(NC(=O)CC2Nc3cccc4cccc(c34)NC2=O)cc1` (stereo not drawn) was tested, and the survival was inactive: 96%.
`CC(C)CCNC(=O)Nc1ccc2c(c1)N(C)C(=O)c1ccccc1S2` was tested, and the survival was inactive: 135%.
With `Cc1ccc(Cc2cnc(I)c(O)c2)cc1` the survival was inactive: 111%.
For `COC(=O)CS(=O)(=O)c1nc2ccccc2nc1N1CCCCC1`, the survival was inactive: 58%.
`Cc1ccc(NC(=O)Cn2c(=O)c3cc(Cl)ccc3n3nncc23)cc1` was tested, and the survival was inactive: 53%.
For `Cc1n[nH]c(C)c1S(=O)(=O)N(CC(=O)NC(C)c1ccccc1)c1ccc(C(C)C)cc1` (stereo not drawn), the survival was inactive: 85%.
With `COc1ccc(C(=O)NCCn2cc(SCC(=O)NCCc3ccc(OC)c(OC)c3)c3ccccc32)cc1` the survival was inactive: 78%.
With `COc1cccc(NC(=O)Cn2cnc3c(nc4n3CCCCC4)c2=O)c1` the survival was inactive: 71%.
`COCCCNC(=O)CN1C(=O)COc2ccc(S(=O)(=O)N3CCCC3)cc21` was tested, and the survival was inactive: 79%.
For `CC1=C(c2ccc(C)c(C)c2)S(=O)(=O)N=C1N1CCC(C(=O)NCCc2ccco2)CC1`, the survival was inactive: 71%.
For `CS(=O)(=O)N1CCc2cc(C(=O)NCCc3ccccc3)ccc21`, the survival was inactive: 92%.
With `Cc1ccc(-c2cc(C(=O)N3CCN(S(=O)(=O)c4ccc(Br)cc4)CC3)[nH]n2)cc1C` the survival was inactive: 66%.
For `CCC(=O)NCC(c1ccc2c(c1)OCO2)N1CCN(c2ccccc2)CC1` (stereo not drawn), the survival was inactive: 135%.
`CCOc1ccc(NCc2cccn2-c2nnc(N3CCC(C(=O)NCCc4ccc(OC)c(OC)c4)CC3)s2)cc1` was tested, and the survival was inactive: 129%.
In the case of `O=C(CN1CCOCC1)N(c1ccccc1)c1ccc2ccccc2c1`, the survival is reported as inactive: 106%.
In the case of `Cc1nc2ccccc2c(=O)n1-c1ccc(NC(=O)c2ccc([N+](=O)[O-])cc2)cc1`, the survival is reported as inactive: 73%.
